# The full ranking holds about 33,000 sequences; the median of “E-score (-0.5 to 0.5)” is about -0.035, and the highest 2% start at about 0.34. The list shows a part of the results.
# Molecular target: T1, Mot3 (UniProt P54785)
# T1 sequence: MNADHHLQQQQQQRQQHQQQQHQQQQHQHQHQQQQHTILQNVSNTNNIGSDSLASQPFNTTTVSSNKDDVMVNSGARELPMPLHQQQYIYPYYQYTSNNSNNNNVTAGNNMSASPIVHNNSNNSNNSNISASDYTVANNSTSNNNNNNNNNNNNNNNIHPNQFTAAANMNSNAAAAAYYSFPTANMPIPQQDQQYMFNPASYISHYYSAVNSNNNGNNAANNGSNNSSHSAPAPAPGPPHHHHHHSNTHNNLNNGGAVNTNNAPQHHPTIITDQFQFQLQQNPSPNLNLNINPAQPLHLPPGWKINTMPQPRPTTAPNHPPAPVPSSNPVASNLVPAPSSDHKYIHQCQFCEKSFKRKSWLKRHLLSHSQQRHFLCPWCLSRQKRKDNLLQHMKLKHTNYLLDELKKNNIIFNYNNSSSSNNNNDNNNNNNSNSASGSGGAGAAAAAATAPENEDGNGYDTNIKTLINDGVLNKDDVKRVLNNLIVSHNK
# Assay: PBM E-score (8-mer binding enrichment) (E-score (-0.5 to 0.5)); higher = stronger / more preferred TF binding; most listed sequences are background and not binding sites
# Conditions: protein concentration: 200 nM; construct: GST-full length
# Procedure, shortened: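 Universal all-10-mer Agilent arrays, double-stranded by primer extension on fresh or once-stripped slides, were probed with about 100-200 nM GST-tagged yeast transcription factors made by PURExpress. Fluorescent anti-GST detected bound protein, and masliner normalised the scans. E-scores from the Universal PBM Analysis Suite were given to each ungapped eight-base word pooled with its reverse complement.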
row,Sequence,PBM E-score
1,GCCAGTAA,-0.175
2,ACATGTTC,0.295
3,ATTGGGGG,-0.253
4,AGCCGTAG,-0.182
5,CCATTGTC,-0.182
6,AAGTGCGG,-0.0843
7,CCTATCGA,0.0654
8,CGGCCGCC,-0.271
9,AATTGTGC,-0.0647
10,GATGCCAA,-0.148
11,CCACGACG,-0.101
12,CGTGCTCA,0.111
13,TAATAGGA,0.27
14,GCGTACGA,-0.00052
15,ACTTTATG,-0.03
16,CGTCTAGA,-0.2
17,CTCCCACC,-0.37
18,CGTCAGGC,0.0152
19,GAGGCCGA,-0.231
20,CAAACGTG,0.0815
21,AACGTCGA,0.0921
22,GGCCGGAA,-0.235
23,CACAATAG,0.232
24,TAGCATAA,-0.0194
25,CTCGCTTC,-0.316

row,Sequence,PBM E-score
1,ACGGTAGC,0.00401
2,GGCGCAGA,-0.12
3,CTACAACC,0.0524
4,ACATATGG,0.0959
5,ATCCCCCA,-0.376
6,AATTACGT,0.335
7,ATGTGATA,0.107
8,ACGAGCGC,-0.135
9,AATTTGGC,0.0722
10,ACTGGAAG,-0.0411
11,GCCTAAGC,0.0733
12,GAACGCCC,-0.186
13,GACCGTAA,-0.265
14,AGACGGAC,-0.211
15,AAGACGGG,-0.286
16,AAATCTTG,0.0451
17,TAGGACTA,-0.0289
18,CAGCTCTC,-0.0994
19,GCATTACC,0.0719
20,CAGCAGTA,-0.0168
21,AACCTGGT,-0.0323
22,ACCAGGAA,0.187
23,ACACCCCT,0.0768
24,ACTAGCCT,-0.129
25,CTTTGTCC,-0.113

row,Sequence,PBM E-score
1,CAGCTCAC,-0.112
2,CAATCTGA,-0.145
3,CCCGCCCA,-0.13
4,ACCCCGCC,-0.141
5,ACCAACAG,-0.133
6,CTCCATGC,-0.0612
7,AAATGCTT,-0.0919
8,AATCCGCC,-0.225
9,CCGATCGG,-0.104
10,GTTCGGAA,-0.14
11,GGCTAGGA,-0.0993
12,ACGGATGA,-0.0966
13,TCAGCACA,0.118
14,ATCCAGAT,-0.209
15,ACGTTAGT,0.103
16,CCCCTTCA,0.12
17,GGCAGACC,-0.254
18,GCGTACCA,0.0581
19,AGTGGCGC,-0.296
20,ACCTTCGT,0.095
21,CGTCAGAA,-0.0792
22,CTCTTTCA,-0.184
23,AGGGTGTG,0.0341
24,GAGTCGGC,-0.208
25,ATTGGTGC,-0.0723

row,Sequence,PBM E-score
1,GCGGCGCA,-0.264
2,GAACAAGA,0.224
3,CTATACAA,0.0964
4,TAATAATA,0.22
5,GGTCCGGA,-0.139
6,CGATGTTC,-0.15
7,TAGGCTCA,0.109
8,CAGCACCA,-0.254
9,CGGAGCGC,-0.097
10,GTTCTGAA,0.28
11,AAATAGCC,-0.0956
12,CAGATCCG,-0.244
13,GGCAGCAC,0.106
14,CTTGGAAC,0.0225
15,CACAACTG,0.0712
16,GCGTTCTA,-0.106
17,AAAGATGG,-0.0558
18,CATTATCC,0.0704
19,CACGGTAC,0.00298
20,CCTGCACC,-0.0282
21,GAAGTATA,-0.0302
22,GAGCATGA,-0.12
23,GAGGAGCA,-0.138
24,ACTAAGTG,0.00975
25,TCTTGACA,0.204

row,Sequence,PBM E-score
1,CGGTCTAA,-0.109
2,CGGGCGTA,-0.0528
3,CCAGAACA,-0.027
4,GCAAAGCC,-0.0572
5,AAAACTAG,0.121
6,ATCGTTTC,0.0191
7,CTGAACCA,0.0648
8,TGAATCCA,-0.0279
9,TGCAGACA,0.0246
10,CTTTCAGA,-0.0529
11,AAGGCTGC,-0.00639
12,CAACGAGC,-0.0853
13,AATCGTGC,0.189
14,GTCCAAAA,0.0252
15,AACGACAT,0.206
16,AAAAAGTC,0.00695
17,CTAGTCGA,-0.0682
18,ACCAGACA,0.0571
19,GACCATGA,-0.291
20,AACTTGAT,0.202
21,AGTAGTAT,0.101
22,GGACGTAC,-0.135
23,CTATACCA,-0.00513
24,CGAGTCAG,-0.256
25,CAGCTGAG,-0.0215

row,Sequence,PBM E-score
1,ACAGCAGC,-0.0207
2,CACTCCAG,-0.177
3,AATGCCTA,0.359
4,CGACGGCG,-0.23
5,ACTTACCT,0.202
6,CGCCAATA,-0.0174
7,AGTGAGAC,-0.249
8,TCATGGGA,-0.166
9,CTAGGCGC,0.041
10,GAAGTAAA,0.102
11,AATTAACC,0.0231
12,AAAGCTAT,0.234
13,CATAGAGC,-0.239
14,AATGCACC,0.0173
15,CTGGAAGC,-0.226
16,AAAGGCCA,-0.00692
17,AGCAACGC,0.152
18,ACATTACA,0.357
19,ACCAGTAA,0.016
20,ATACGACA,0.125
21,ATAAGAAT,-0.00099
22,ACTGACTC,-0.249
23,GATCCATA,-0.201
24,CTGAGGTC,-0.255
25,CAAGTGAC,-0.181

row,Sequence,PBM E-score
1,CTGGGTTA,0.0528
2,GAGGTTCC,0.0675
3,CCTCTTGC,0.0662
4,GAACGCCA,-0.0986
5,ACCCGGTA,0.0102
6,TGCTTGAA,0.125
7,CATTGTGA,-0.0102
8,CCTCGGGC,-0.147
9,ACGGAGGA,0.0801
10,CCACATTA,0.0425
11,CGCGAGTA,0.0414
12,AACGACGG,-0.0151
13,TAACTCAA,0.117
14,CCTTGCAG,-0.0164
15,GCGAACAC,-0.0397
16,ATCTGCTG,-0.156
17,ATATGCGA,-0.0974
18,GGCCTCAC,-0.1
19,AAACTGTG,0.136
20,GATGACAA,0.101
21,AGGCGCTC,0.214
22,CTCACCTC,-0.177
